According to US20250222123A1, “COMPOUND COMPRISING FC-BINDING UNIT, AND CONJUGATE PREPARED USING SAME” (ABTIS CO., LTD., priority 2022, published 2025):

What was measured:
[1] = biological target: T1, CLDN18.2 virus-like particle (VLP) (Homo sapiens, UniProt P56856); assay: Indirect ELISA on CLDN18.2 virus-like particle (VLP); type: binding; conditions: CLDN18.2 (antigen protein), VLP-coated plate
T1 construct: purchased CUSABIO TECHNOLOGY LLC CSB-MP005498HU (A5)
Protocol: To confirm the binding strength to an antigen, a CLDN18.2 virus-like particle (VLP) in which the claudin 18.2 protein (CLDN18.2) was expressed was prepared. At this time, CLDN18.2˜VLP is CSB-MP005498HU (A5) from CUSABIO TECHNOLOGY LLC.
After a 96-well plate was coated with the CLDN18.2 VLP for ELISA and treated with antibody-A and ADC-A, respectively, indirect ELISA was performed to measure OD values. At this time, the measured values are illustrated in FIG. 37.
The measured results were used for regression analysis in GraphPad PRISM® 9.0 software to calculate EC50 and Bmax. The antigen binding strengths of antibody-A, ADC-A, antibody-B, and ADC-B were evaluated based on the calculated values.

MIA PaCa-2˜CLDN18.2 = assay: Cell-based ELISA, binding to antigen-expressing cancer cells
Protocol: (§1) Four types of cell lines (MIA PaCa-2˜CLDN18.2, PATU8988S, parental MIA PaCa-2 (CLDN18.2-), and SNU601) were prepared. At this time, MIA PaCa-2˜CLDN18.2 and PATU8988S are CLDN18.2-positive pancreatic cancer cell lines. MIA PaCa-2 (CLDN18.2-) is a CLDN18.2-negative pancreatic cancer cell line. SNU601 is a CLDN18.2-positive gastric cancer cell line.
(§2) The prepared cell lines were cultured in DMEM containing 10% FBS and 1% penicillin/streptomycin (MIA PaCa-2˜CLDN18.2, MIA PaCa-2 (CLDN18.2-)), RPMI1640 containing 10% FBS and 1% penicillin/streptomycin (SNU601), and DMEM comprising 5% FBS, 5% horse serum, 1% penicillin/streptomycin, and […] L-glutamine (PATU8988S) in an incubator under the conditions of 37° C. and 5% CO2.
(§3) The prepared cell lines were plated on 96-well culture plates, treated with antibody-A, ADC-A, antibody-B, and ADC-B, respectively, and then cell-based ELISA was performed, and OD values were measured. At this time, the measured values are illustrated in FIGS. 38 to 41.
(§4) The measured results were used for regression analysis in GraphPad PRISM® 9.0 software to calculate EC50 and Bmax. The cell binding strengths of antibody-A, ADC-A, antibody-B, and ADC-B to each cell line were evaluated based on the calculated values.

SNU601 = assay: as above; conditions: SNU601 (CLDN18.2+)
Protocol: as §1, §2, §3, §4

PATU8988S = assay: as above; conditions: PATU8988S (CLDN18.2+)
Protocol: as §1, §2, §3, §4

[2] = biological target: T2, claudin 18.2 protein (CLDN18.2) (Homo sapiens, UniProt P56856); assay: Cell-based ELISA, Claudin 18.2 CHO-K1; type: binding; conditions: for Bmax: CLDN18.2-CHO-K1, OD 450 nm, regression analysis; for binding to cell line (in words): Claudin 18.2 CHO-K1
T2 construct: expressed in transfected cells; host or cells: CHO-K1, transient, pcDNA3.1 (+) vector
Description: A CHO-K1 cell line into which a gene (SEQ ID NO: 29) encoding the claudin 18.1 protein (CLDN18.1) was transiently transfected (hereinafter, referred to as “Claudin 18.1 CHO-K1”), a CHO-K1 cell line into which a gene (SEQ ID NO: 30) encoding the claudin 18.2 protein (CLDN18.2) was transiently transfected (hereinafter, referred to as “Claudin 18.2 CHO-K1”), and a CHO-K1 cell line into which only a MOCK vector (empty vector) was transiently transfected (hereinafter, referred to as “MOCK CHO-K1”) were prepared. At this time, a pcDNA3.1 vector was used in the case of Claudin 18.1 CHO-K1, and a pcDNA3.1 (+) vector was used in the case of Claudin 18.2 CHO-K1.
The CHO-K1 cell lines were cultured in RPMI1640 containing 10% FBS and 1% penicillin/streptomycin in an incubator under the conditions of 37° C. and 5% CO2.
(§5) Transient transfection was performed according to the TransIT2020 manual, the transfected cells were plated on a 96-well plate for culture, and then treated with antibody-A and ADC-A, respectively, and then cell-based enzyme-linked immunosorbent assay (ELISA) was performed, and optical density (OD) values were measured. At this time, the measured values are illustrated in FIGS. 34 to 36.
(§6) The measured results were used for regression analysis in GraphPad PRISM® 9.0 software to calculate EC50 and Bmax. The cell binding strength of antibody-A and ADC-A was evaluated based on the calculated values.

MIA PaCa-2 (CLDN18.2-) = assay: Real-time cellular internalization (Incucyte); type: cell-based; conditions: 8, 4, and 2 μg/mL; cell line does not express CLDN18.2
Protocol: Real-time internalization measurements were performed according to the reagent and equipment manual.
The prepared cell lines were cultured in DMEM containing 10% FBS and 1% penicillin/streptomycin (MIA PaCa-2˜CLDN18.2, MIA PaCa-2 (CLDN18.2-)) and RPMI1640 containing 10% FBS and 1% penicillin/streptomycin (SNU601) in an incubator under the conditions of 37° C. and 5% CO2. 96-well plates were plated with MIA PaCa (CLDN18.2-), MIA PaCa-2˜CLDN18.2, and SNU601 cell lines at 3,000 to 5,000 cells/well.
Samples for internalization verification antibody-A and ADC-A were prepared according to the Incucyte@ Fabfluor -pH reagent manual.
Finally, antibody-A and ADC-A were diluted to 8, 4, and 2 μg/mL, respectively, and were treated to designated wells 50 μL of each. The plates mixed with the sample were measured every hour using the Incucyte@ Live-Cell Analysis System to measure the internalization levels. The measured values are illustrated in FIGS. 42 to 44.

[3] = biological target: T3, claudin 18.1 protein (CLDN18.1) (Homo sapiens, UniProt P56856); assay: Cell-based ELISA, Claudin 18.1 CHO-K1; type: binding
T3 construct: expressed in transfected cells; host or cells: CHO-K1, transient, pcDNA3.1 vector
Description: A CHO-K1 cell line into which a gene (SEQ ID NO: 29) encoding the claudin 18.1 protein (CLDN18.1) was transiently transfected (hereinafter, referred to as “Claudin 18.1 CHO-K1”), a CHO-K1 cell line into which a gene (SEQ ID NO: 30) encoding the claudin 18.2 protein (CLDN18.2) was transiently transfected (hereinafter, referred to as “Claudin 18.2 CHO-K1”), and a CHO-K1 cell line into which only a MOCK vector (empty vector) was transiently transfected (hereinafter, referred to as “MOCK CHO-K1”) were prepared. At this time, a pcDNA3.1 vector was used in the case of Claudin 18.1 CHO-K1, and a pcDNA3.1 (+) vector was used in the case of Claudin 18.2 CHO-K1. […]
as §5, §6

Molecule	Bmax [1]	Bmax (MIA PaCa-2˜CLDN18.2)	Bmax (SNU601)	Bmax (PATU8988S)	Bmax [2]	binding to cell line (in words) [2]	internalization (in words) (MIA PaCa-2 (CLDN18.2-))	binding to cell line (in words) [3]
Antibody-A: antibody comprising a light chain of SEQ ID NO: 26 and a heavy chain of SEQ ID NO: 25 (antibody, anti-CLDN 18.2 antibody Heavy chain; anti-CLDN 18.2 antibody Light chain) heavy: QVQLVESGGGVVQPGRSLRLSCAASGFSLTTYGVHWVRQAPGKGLEWVAVIWAGGSTNYNSALMSRFTISRDNSKNTLYLQMNSLRAEDTAVYYCARAAYYGNGLDYWGQGTMVTVSS[… human IgG1 constant region …] light: DIVMTQSPLSLPVTPGEPASISCKSSQTLLNSGNQKNYLTWYLQKPGQSPQLLIYWASTGESGVPDRFSGSGSGTDFTLKISRVEAEDVGVYYCQNAYFYPFTFGGGTKVEIKRTVAAPSVFIFPPSDEQLKSGTASVVCLLNNFYPREAKVQWKVDNALQSGNSQESVTEQDSKDSTYSLSSTLTLSKADYEKHKVYACEVTHQGLSSPVTKSFNRGEC	3.229	3.534	3.002	1.743	1.149	specifically bind	not internalized	do not bind
ADC-A (conjugate) heavy: QVQLVESGGGVVQPGRSLRLSCAASGFSLTTYGVHWVRQAPGKGLEWVAVIWAGGSTNYNSALMSRFTISRDNSKNTLYLQMNSLRAEDTAVYYCARAAYYGNGLDYWGQGTMVTVSS[… human IgG1 constant region …] light: DIVMTQSPLSLPVTPGEPASISCKSSQTLLNSGNQKNYLTWYLQKPGQSPQLLIYWASTGESGVPDRFSGSGSGTDFTLKISRVEAEDVGVYYCQNAYFYPFTFGGGTKVEIKRTVAAPSVFIFPPSDEQLKSGTASVVCLLNNFYPREAKVQWKVDNALQSGNSQESVTEQDSKDSTYSLSSTLTLSKADYEKHKVYACEVTHQGLSSPVTKSFNRGEC	2.995	3.354	2.752	1.607	0.9386	specifically bind	not internalized	do not bind
